Assay results reported in publication PMC4336329 (PLoS ONE, 2015).
Among all 310,000 compounds or so, about 2,200 (0.71%) showed an effect of 50% or more. The effect is printed as a negative number. The list shows a part of the results.

The compounds below were run against human ether-à-go-go-related gene (hERG) potassium channel (human, UniProt Q12809) (assay: primary screen, population patch clamp on CHO cells stably expressing hERG).
human ether-à-go-go-related gene (hERG) potassium channel, sequence (Q12809 whole entry, looked up): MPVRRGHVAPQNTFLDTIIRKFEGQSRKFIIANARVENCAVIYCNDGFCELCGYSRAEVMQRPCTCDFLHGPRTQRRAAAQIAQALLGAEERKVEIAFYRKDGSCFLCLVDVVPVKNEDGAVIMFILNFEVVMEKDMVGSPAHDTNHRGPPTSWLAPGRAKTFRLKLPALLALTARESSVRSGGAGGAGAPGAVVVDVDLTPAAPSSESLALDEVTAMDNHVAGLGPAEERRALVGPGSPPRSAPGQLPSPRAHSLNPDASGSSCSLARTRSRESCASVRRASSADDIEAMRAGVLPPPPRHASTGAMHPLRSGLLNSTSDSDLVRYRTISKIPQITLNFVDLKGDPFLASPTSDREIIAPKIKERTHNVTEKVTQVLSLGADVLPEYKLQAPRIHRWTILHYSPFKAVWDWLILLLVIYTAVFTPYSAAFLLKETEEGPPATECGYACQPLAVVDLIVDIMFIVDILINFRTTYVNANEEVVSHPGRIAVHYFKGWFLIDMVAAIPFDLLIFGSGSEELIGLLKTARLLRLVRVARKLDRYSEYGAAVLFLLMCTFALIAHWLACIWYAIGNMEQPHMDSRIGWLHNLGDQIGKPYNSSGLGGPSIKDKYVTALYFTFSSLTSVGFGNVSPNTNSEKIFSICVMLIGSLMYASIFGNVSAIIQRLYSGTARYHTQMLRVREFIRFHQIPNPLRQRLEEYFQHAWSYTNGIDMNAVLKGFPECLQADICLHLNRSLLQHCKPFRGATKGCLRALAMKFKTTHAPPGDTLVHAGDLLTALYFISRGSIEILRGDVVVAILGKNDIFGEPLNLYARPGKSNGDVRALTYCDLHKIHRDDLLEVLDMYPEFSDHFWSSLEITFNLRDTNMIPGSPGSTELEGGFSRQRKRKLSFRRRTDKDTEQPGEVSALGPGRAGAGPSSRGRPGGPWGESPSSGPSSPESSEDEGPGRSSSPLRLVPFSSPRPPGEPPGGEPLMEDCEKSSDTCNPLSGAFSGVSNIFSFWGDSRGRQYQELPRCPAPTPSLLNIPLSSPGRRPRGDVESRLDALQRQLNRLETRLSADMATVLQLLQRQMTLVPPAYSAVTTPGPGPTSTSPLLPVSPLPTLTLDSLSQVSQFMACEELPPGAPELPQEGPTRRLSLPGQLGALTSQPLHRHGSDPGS

SMILES | hERG current change (%, negative = inhibition) at 1uM [%]
CCOC(=O)C1=C(COC(=O)CCOc2ccc(C)cc2)NC(=O)NC1C (stereo not drawn) | 1.56
Cc1ccc(N2CCN(S(=O)(=O)N3CCCCCC3)CC2)cc1Cl | 12.6
CC1COC2C(O1)N(S(C)(=O)=O)CCN2S(C)(=O)=O (stereo not drawn) | 9.63
Cc1ccc(CN2CC(C(=O)Nc3nnc(SCc4c(Cl)cccc4Cl)s3)CC2=O)cc1 (stereo not drawn) | 10.8
CCn1cc(CNC(=O)c2cc([N+](=O)[O-])c(C)c([N+](=O)[O-])c2)cn1 | 4.17
CCC(C(=O)OCC(=O)Nc1cc(Cl)ccc1Cl)c1ccccc1 (stereo not drawn) | 20.4
O=C1CSC(c2ccccc2[N+](=O)[O-])N1CCc1ccccc1 (stereo not drawn) | 10.8
COCCn1c(-c2ccc3ccccc3c2)nc2c1c(=O)[nH]c(=O)n2CC(C)C | 1.16
COc1ccc(/C=N/NC(=S)NCCc2ccccc2)cc1 | 15.4
CN(Cc1ccccc1)S(=O)(=O)c1cccc(C(=O)O)c1 | 7.43
Cc1ccc(-n2[nH]c(C)c(/C=N/NC(=O)c3ccc([N+](=O)[O-])cc3)c2=O)c(C)c1 | 15.9
CC(C)n1nnnc1SCC(=O)NCc1ccco1 | 4.38
O=C(NC(=S)N(CC1CCC1)CC1CCCO1)c1cccc([N+](=O)[O-])c1 (stereo not drawn) | 3.27
CC1(C)C(=O)NC(=O)N1Cc1ccccc1 | 11.6
CCn1nnnc1NCc1ccc(OCc2c(F)cccc2Cl)c(OC)c1 | 13.6
O=C(NCCCCNC(=O)C(F)(F)F)C(F)(F)F | 6.31
CNC(=S)N/N=C/c1ccc(-c2ccc(Cl)c([N+](=O)[O-])c2)o1 | 13.5
Cc1ccc(-n2c(C)nnc2SCC(=O)Nc2ccccc2)cc1 | 0.083
CCOC(=O)c1cnc2c(C)cccc2c1NCCc1ccc(OC)c(OC)c1 | -4.73
CCOC(=O)N1CCN(C(=O)CN(c2cccc(C)c2)S(=O)(=O)c2ccccc2)CC1 | 0.248
O=C(O)c1cc(NC(=O)c2cccc(F)c2)cc(NC(=O)c2cccc(F)c2)c1 | 18.1
CC(=O)c1ccc(NC(=O)c2cccc(S(=O)(=O)N3CCN(C)CC3)c2)cc1 | 8.18

SMILES | hERG current change (%, negative = inhibition) at 1uM [%]
CCCCC1CCc2[nH]nc(C(=O)O)c2C1 (stereo not drawn) | 4.01
CN(Cc1cnn(Cc2ccccc2)c1)C(=O)CN=C1NS(=O)(=O)c2ccccc21 | 2.25
COc1ccc(C(=O)Nc2ccc(Cl)cn2)cc1Cl | 9.55
CCOC(=O)c1ccc(NS(=O)(=O)c2cccc3nsnc23)cc1 | -4.59
CC(=O)Nc1cc(NC(C)=O)cc(C(=O)N2CCCC3CCCCC32)c1 (stereo not drawn) | 8.64
O=C(COc1ccc2ccccc2c1)N1CCCC1 | 1.53
Cc1ccc(S(=O)(=O)N2CCCC2C(=O)NCc2ccccc2F)cc1 (stereo not drawn) | 13.9
Cc1c(Cl)cccc1NC(=O)Cn1c(CCC(=O)O)ccc1-c1ccc(Cl)cc1 | 10.6
O=C(Nc1cccc(-c2nc3ccccc3o2)c1)c1cccnc1 | -21.6
COc1ccc(S(=O)(=O)Nc2ccc3oc(C)c(C(=O)O)c3c2)cc1 | 17.9
N#CCCN(Cc1cccnc1)C(=O)c1sc2cc(F)ccc2c1Cl | 0.623
CN(C)C=O.Cc1cc(-c2ccco2)c(C#N)c2nc3ccccc3n12 | -2.47
C=CCNC(=O)c1oc2ccc(S(=O)(=O)N3CCC4(CC3)OCCO4)cc2c1C | 9.37
CCc1noc(C)c1C(=O)N1CCSC1=Nc1cccc(Cl)c1C | 13.2
CC(C)(C)c1ccccc1OCC(=O)Nc1ccccc1C(=O)NCc1cccnc1 | 25.2
O=C(c1ccco1)N1CCN(C(=O)c2cc3c(s2)-c2ccccc2OC3)CC1 | -10.5
O=C(c1cc(-c2cccs2)on1)N1CCN(C(c2ccccc2)c2ccccc2)CC1 | 5.97
O=S(=O)(NCC1CCCO1)c1ccccc1 (stereo not drawn) | 14.6
CCOC(=O)c1ccccc1NC(=O)CSc1ccc(-c2ccccn2)nn1 | 9.27
O=C(Nc1ccc(S(=O)(=O)Nc2ccccc2)cc1)c1ccc(CN2CCOCC2)cc1 | -0.107
O=C(NCc1ccc(F)cc1)c1cc(-c2cccs2)on1 | 12.3
COc1ccc(CNC(=O)CCCNC(=O)c2ccc(Cl)cc2)cc1OC | 8.76

SMILES | hERG current change (%, negative = inhibition) at 1uM [%]
COCCn1cnc2c(c1=O)c1nc3ccccc3nc1n2/N=C/c1ccco1 | 16.2
N#Cc1c(NCCO)nc(NCc2ccccc2)c2c1CCN(Cc1ccccc1)C2 | -4.52
O=C(Nc1cccc(S(=O)(=O)N2CCCCC2)c1)c1ccccn1 | 9.62
O=C(NCCCN1CCCC1=O)c1cc(COc2ccc(F)cc2F)on1 | 4.66
Cc1ccc(CNC(=O)C2CCN(S(=O)(=O)c3c(C)noc3/C=C/c3ccco3)CC2)cc1 | -2.87
CCOC(=O)N1CCN(Cc2nc(CC3CC3)no2)CC1 | 15.4
Cc1ccccc1CNC(=O)C(=O)NCC1OCCCN1S(=O)(=O)c1ccc(F)cc1C (stereo not drawn) | 15.3
CC(C)n1cc(C(=O)c2ccccc2O)cc(C#N)c1=O | 9.14
COc1ccc(-n2c(=S)[nH]c3cc(C(=O)Nc4cc(OC)c(OC)c(OC)c4)ccc3c2=O)c(OC)c1 | 13.2
O=C(NCCc1ccccc1)C1CC1 | 11.9
O=C(Nc1ccc(O)c2c(=O)cc(-c3ccccc3Cl)oc12)c1ccc(Cl)c(Cl)c1 | 10
O=C(NCc1cn2ccsc2n1)c1cccs1 | 5.44
C=CCn1c(SCc2nc3sc(C(=O)O)c(C)c3c(=O)[nH]2)nnc1-c1ccc(F)cc1 | 7.42
CCOc1ccccc1NC(=O)COC(=O)C(CC)c1ccccc1 (stereo not drawn) | 0.794
O=C(CC1S/C(=N\S(=O)(=O)c2ccccc2)N(c2ccccc2)C1=O)Nc1ccc(F)cc1 (stereo not drawn) | 7.33
CCn1c2ccccc2c2cc(NC(=O)CSc3nnc(-c4cccc(C)c4)o3)ccc21 | 11.7
O=C(OC(c1ccc(NS(=O)(=O)c2ccccc2)cc1)(C(F)(F)F)C(F)(F)F)c1ccccc1 | -6.41
Cc1ccc(N2CN(S(=O)(=O)c3cccc([N+](=O)[O-])c3)c3nc4ccccc4nc32)cc1 | 0.325
CNC(=O)/C(C#N)=C/c1cc(C)n(-c2ccc(N3CCOCC3)cc2)c1C | 10.9
O=C(O)COc1ccc2occ(C(=O)c3ccccc3)c2c1 | -7.22
Cc1ccc(NC(=O)CCCNC(=O)c2ccc(Cl)cc2)c(O)c1 | -2.02
O=C(Nc1cccc(Br)c1)c1cccc(OC(=S)N2CCOCC2)c1 | 10.6

SMILES | hERG current change (%, negative = inhibition) at 1uM [%]
CCCC(=O)C1C(=O)CC(CC(C)SCC)CC1=O (stereo not drawn) | 9.72
CCCCN(C)CCNC(=O)C(NC(=O)C1CCC(C)CC1)C(C)C (stereo not drawn) | 3.54
NC(N)=NC(N)=Nc1ccc(O)cc1 | 7.52
CC(CCc1ccco1)N(C)S(=O)(=O)c1csc(C(N)=O)c1 (stereo not drawn) | 6.68
Cc1n[nH]c(=O)c2c(NC(=O)COC(=O)/C=C/c3cccc(C(F)(F)F)c3)oc(C)c12 | 13
O=C(CCOc1ccccc1)N1CCN(S(=O)(=O)c2ccccc2F)CC1 | 13.5
Nc1nc(CN2CCN(c3ccccn3)CC2)nc(Nc2ccc(Cl)cc2)n1 | -56.2
CCCCCOc1ccccc1C(=O)NCCCCCC(=O)O | -14.5
CC(C)(C)c1nc(SCC(=O)N2CC(=O)Nc3ccccc32)c2ccccc2n1 | 22.1
CCn1c(CSc2nnc(-c3cccnc3)n2-c2ccccc2C)nc2cc(C(=O)O)ccc21.Cl | -7.29
COc1ccccc1CNc1ccc(N2CCOCC2)c(C(=O)O)c1 | -0.542
COC(=O)Nc1ccc(S(=O)(=O)N2CCCC(C(=O)N3CCC(C)CC3)C2)cc1 (stereo not drawn) | -11.6
CCc1ccc(NC(=O)C(C)Sc2nnc(CN3CCCC3)o2)cc1 (stereo not drawn) | 4.55
O=C(N/N=C/C=C/c1ccccc1)c1cccc(Br)c1 | 11.5
O=C(CN1CCCCCC1)OCCN=C1NS(=O)(=O)c2ccccc21 | -2.6
COC(=O)c1ccccc1OCCOCCOc1cccc2cccnc12 | -5.94
COc1ccc(-n2c(CN3CCOCC3)nc3ccccc3c2=O)c(OC)c1 | 22.8
COc1ccccc1/C=C/C1=NC(=C\N(C)C)/C(=O)O1 | 1.12
Cc1ccc(C(=O)NC2(O)C(=O)c3ccccc3C2=O)cc1C | 12.6
CCOCCCNC(=S)N1CCN(Cc2ccco2)CC1.O=C(O)C(=O)O | 18
CC(C)(C)c1ccc(C(=O)N2CCC(C(=O)NC3CCCCCC3)CC2)cc1 | -6.37
